Data published in publication PMC12136788.
The list shows a part of the results.

T1: UNK ZnF1-3 (human, UniProt Q9C0B0 31-174)
T1 sequence: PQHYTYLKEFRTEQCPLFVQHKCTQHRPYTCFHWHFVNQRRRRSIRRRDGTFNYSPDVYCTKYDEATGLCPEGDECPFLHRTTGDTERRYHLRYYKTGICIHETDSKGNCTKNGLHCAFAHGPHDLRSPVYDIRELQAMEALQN

B1: chr2:114699772:114699773:+_ENSG00000115091_ENST00000536059|hu_mus|FALSE|FALSE (ssRNA)
RNA: GGGAGUUCUACAGUCCGACGAUCUGACCCAUCGGUGUCAUACUUGUUAAACUCUUUUACUAAAUCUGGGCAGACAUAACUGUAGCGUUCCUUCACUGCUUUCGCAGUUUCCAAGGACUGCUCAGGAGGGAUUCCUACUUCUCGCAACAGAGGAUUGAGCAUCA
B2: chr10:5807933:5807934:-_ENSG00000057608_ENST00000380191|hu_mus|motif|central (ssRNA)
RNA: GGGAGUUCUACAGUCCGACGAUCGGGCUUACAGUAUUGAUUUCAUACAAUAUACAUUAUUUGCCAAAUUUUAAGUUUGUCCGGAUUAUUACAUAAUAUGUACUGCUGUUAGUCUUCUCCAUAAAUGUCAUUCUUCUUGCGCUUCAACAGAGGAUUGAGCAUCA
B3: chr9:107926503:107926504:+_ENSMUSG00000032594_ENSMUST00000035214|mus_hu|motif|central (ssRNA)
RNA: GGGAGUUCUACAGUCCGACGAUCGGGGGCCAGUUGCACACUGAGGGCAGAGGAUGCAGCACAUGGGCCACAAAAGGAGAGCGGCAUAGAAGGUCCUGGCCAGGUGAAAGCCAAUGGUCAGAUUCUAUUCAGCUUAUUAUUCUGCAACAGAGGAUUGAGCAUCA
B4: chr2:48026839:48026840:+_ENSG00000116062_ENST00000540021|hu_hu|hu_hu_hu_mus_False|38_98 (ssRNA)
RNA: GGGAGUUCUACAGUCCGACGAUCAUAGUGAGCCACUAGAGUCCUAAAUCUGGAACAGUGGCGGUCAUCCGAAAACUGGCCGAUGAAAAACUUGCCCAGUGAAGUAUCCACAAAGCAAACACCAUACACACGAGUGUGACCAGACAACAGAGGAUUGAGCAUCA
B5: chr10:33190432:33190433:-_ENSG00000150093_ENST00000302278|hu_mus|hu_hu_hu_mus_True|18_58 (ssRNA)
RNA: GGGAGUUCUACAGUCCGACGAUCUACAUUUUCCAAACCUGCAUGUGAAUAAAACCCUGGCCACAGAGCCCCAAAACUACCUAACUGUGACUAAGAUGCUGCUGCUGUGAGCUUGGUUGUUGUGGGACCGCCUGAGUAGGAUUCCAACAGAGGAUUGAGCAUCA
B6: chr1:46159212:46159213:+_ENSG00000159596_ENST00000372025|hu_mus|hu_hu_hu_mus_True|88_98 (ssRNA)
RNA: GGGAGUUCUACAGUCCGACGAUCUCUGAUCCCUCCCAAGAAAGAUAGGAAACUGGCUCCAUAAGCCAUCUGAGUGAAAGCUAGGACGGGGAUAUAAGACUUUGUUAUUACCAUGAGAAGUGGGGGAGCAGUAAAGGGGAUUAACAACAGAGGAUUGAGCAUCA
B7: chr9:59240146:59240147:-_ENSMUSG00000025234_ENSMUST00000171975|mus_mus|motif|central (ssRNA)
RNA: GGGAGUUCUACAGUCCGACGAUCGCGUCAAGGCCACAGAGGAGUAGGCUGGGAUAGGAUCAUUCAUGAACUGAAGCAACGGAACCCUUUAACAGGCCGAGGCAUUUGCUUAGAAUGUGACUUCCUGGAUCUAGAUCCAGAAGCCAACAGAGGAUUGAGCAUCA
B8: chr3:179287964:179287965:+_ENSG00000136518_ENST00000429709|hu_hu|hu_hu_hu_mus_True|28_68 (ssRNA)
RNA: GGGAGUUCUACAGUCCGACGAUCCUUGAGUGGUGAGAUGGCCUCCAUGUUCUCCCUGGGCACGCGGAGAGCAUUAGUGUCUAUGUAGUAGGUGGGCCCGCCCUGCUUGCCUUUAUCACCAUCAAUCUCCAUCAUUGUACUUCCCAACAGAGGAUUGAGCAUCA
B9: chr7:149068622:149068623:-_ENSMUSG00000025139_ENSMUST00000001950|mus_hu|mus_mus_mus_hu_False|38_58 (ssRNA)
RNA: GGGAGUUCUACAGUCCGACGAUCGUGAGGCCUCUGAGUGUGGCUUGUGGUCUGUCCUGGGUUAGAGUUGUUAAUAUCACUAAGUGGACCAUCUAGAGAGGUUCUGCCCCGCCUGACACCUUCAUUCCCAAUGGAGAAGAAAUCCAACAGAGGAUUGAGCAUCA
B10: chr3:196509625:196509626:+_ENSG00000180370_ENST00000327134|hu_hu|motif|central (ssRNA)
RNA: GGGAGUUCUACAGUCCGACGAUCAACAGAGGGCAAAGGUUUCAAACUGUGAUUGGCUGACAAAGGGUCUUUGCCUCCAGUGCGGAAGAUGGUGCUGCUCAUUCGCACAGGAGGUGCUGGAGGCUUAUCUUCCAGUUCUCCGUUCAACAGAGGAUUGAGCAUCA
B11: chr22:32879901:32879902:+_ENSG00000100225_ENST00000397426|hu_mus|hu_hu_hu_mus_False|18_98 (ssRNA)
RNA: GGGAGUUCUACAGUCCGACGAUCCUCUUCCAUACUCGCAUUAUCUUGAAUUGACUCAGCUUCAACAUUUUGACUAGGCCCUUCCAUACUGUCAUCAGUCCAGGCAUCAAAUGGGGUUGCCUGUCCUUGGGAUGAAUCAGUCCCCAACAGAGGAUUGAGCAUCA
B12: chr7:54825262:54825263:-_ENSG00000132432_ENST00000352861|hu_hu|hu_hu_hu_mus_False|38_98 (ssRNA)
RNA: GGGAGUUCUACAGUCCGACGAUCCUGCCGGCUGGGCACAAACUGCAGCAUUACCUGAUCCAUGUUUGUUGGAUGGCGGAUUGAGAGCGUAGAGACAACGUAGCACUGAGAGAACCGAGCCCAACGGAACCGGAAGCUGGCAACCAACAGAGGAUUGAGCAUCA
B13: chr1:45478652:45478653:+_ENSG00000126088_ENST00000246337|hu_mus|FALSE|FALSE (ssRNA)
RNA: GGGAGUUCUACAGUCCGACGAUCGCAAGCCUCGGGAGAUCGGCAGGUGCUGAAGAAGUCCUGGGCAGCCCUGGUUUCCCUAAACUCUGGUAAGUAGCGGCCUGCCUGUCUCAUGCACCAAACGGGAGUAUAGUCUGUUUCCUCCAACAGAGGAUUGAGCAUCA
B14: chr2:26332712:26332713:+_ENSG00000084733_ENST00000264710|hu_mus|motif|central (ssRNA)
RNA: GGGAGUUCUACAGUCCGACGAUCGUUUCUAAGCCACUUGCUGAUGUUCUCAAAGCUUUUACCGUUGGUGAUGUCAUACACGGGCAUGAUGCCCAUUGCUCCUCUGUAGUAGGAGGUUGUGAUGGUGUGAAAUCGCUCCUGGCCCAACAGAGGAUUGAGCAUCA
B15: 120165091_120165211_759_CDS_ENSMUSG00000027291_ENSMUST00000028752|mouse|control|control (ssRNA)
RNA: GGGAGUUCUACAGUCCGACGAUCUUUCUGAGUGCAGAUGCCUUCCUCGUUAAGCACCACAGUCAGAUCAUCCUGACCCACAGCCACUUUUCCAUCUGCCAGAGGGGCAACUAAGGGCUCCAGCUGCUUUCCUGUUGGGAAGAGCAACAGAGGAUUGAGCAUCA
B16: chr2:42509997:42509998:+_ENSG00000143924_ENST00000318522|hu_mus|hu_hu_hu_mus_True|68_108 (ssRNA)
RNA: GGGAGUUCUACAGUCCGACGAUCUCGCUGAGUUCUCUCCUCAUAAUUAAACAGGACUACCACUGAGGCAAUGAAAUAAACUAUCUCCCCUGUGGGAAGCAGGUAUACAUUCGCUCUACAGUCCUUUCCUCGAUAACCGUAUACCAACAGAGGAUUGAGCAUCA
B17: chr8:95500983:95500984:-_ENSG00000164944_ENST00000437199|hu_hu|hu_hu_hu_mus_True|38_38 (ssRNA)
RNA: GGGAGUUCUACAGUCCGACGAUCAGAACACAUCUAUCGAGUAAAGGACCGUACAUGACGGCCUCUACCACUGCCUCCACUAACAAACUUUCCUCUCUGAGCCUCCAUGCCGCUAUUUGUACUAGCCCAGGACGGUCCCAGGCCCAACAGAGGAUUGAGCAUCA
B18: chr2:216981417:216981418:+_ENSG00000079246_ENST00000392132|hu_hu|hu_hu_hu_mus_True|1_88 (ssRNA)
RNA: GGGAGUUCUACAGUCCGACGAUCCUGAUACUGGUCCUUGCCAGCAAGGGGAUUGUCAGUGCCAUCUGUGCCAUAGAGGACUAACGCAAUCUCAUCUUUGCUCUCCGAAAAUACCUGUCGUUGGACAAACAUAGUCAUCACCUUCAACAGAGGAUUGAGCAUCA
B19: chrX:101152592:101152593:-_ENSMUSG00000056537_ENSMUST00000070705|mus_hu|motif|central (ssRNA)
RNA: GGGAGUUCUACAGUCCGACGAUCUAAAUCUGCAGUAUGACAUCUUACAUAGGGAAAAAAGCUUCUUCCUAAAAGAUAACGGUUAAUAAUCAAACCAGCUUUAAUAUGAUUGACCUUUCAAGGUCUUGUUUUGCUUUAAACAAGCAACAGAGGAUUGAGCAUCA
B20: chr5:71593506:71593507:-_ENSG00000113048_ENST00000457646|hu_mus|motif|central (ssRNA)
RNA: GGGAGUUCUACAGUCCGACGAUCAUCUAGAUCUUCUCGGGAUGCAAUGUUGUCCACAAACCGUGAUAUUGAUAAAGAACGGACAGGCAAUUUUCUUUCAUACGCUUUGUCCAUUAAGGAUGCAAGAUCAGCCAGAUGGUAUUCCAACAGAGGAUUGAGCAUCA
B21: chr17:56552419:56552420:-_ENSMUSG00000013236_ENSMUST00000086828|mus_mus|mus_mus_mus_hu_False|8_108 (ssRNA)
RNA: GGGAGUUCUACAGUCCGACGAUCAAAGUUUUUUUCUUUUAAAAAAAAUGAAAUGUCACGGGAUACAGUUACACUGAGAGUUUUAAAAGAAAGCUGGAUUCUGGUCCCAGCCCAGUGUCCCCAGGCUGAGUGCGGAAGAGGAGCCAACAGAGGAUUGAGCAUCA
B22: chr3:103546164:103546165:-_ENSMUSG00000008730_ENSMUST00000118317|mus_hu|FALSE|FALSE (ssRNA)
RNA: GGGAGUUCUACAGUCCGACGAUCUGAGAACUCAGCCGAGAAUCCAAAAUGGAAAGGGGUAGAGGUGGUGGUAAAGGAGAAAAGCUGCUGUUUUUAUUUUUCAAUGUUGGCAGGGAAACUGAGAACAAUGCAUUACACAAUACACAACAGAGGAUUGAGCAUCA

The binders below were run against T1, UNK ZnF1-3 (assay: nsRBNS (natural sequence RNA bind-n-seq); RBNS binding buffer (assumed for nsRBNS): 25 mM Tris pH 7.5, 150 mM KCl, 3 mM MgCl2, 0.01% Triton X-100, 500 ug/ml BSA, 20 U/ml SUPERase-In, 4 C; UNK is unkempt and MSI1 is Musashi-1; names of the RNAs are library labels; protein concentration not given here; high values mean tight binding).
B1 gave a binding signal of 0.668 enrichment R. In the case of B2, the binding signal is reported as 0.611 enrichment R. With B3 the binding signal was 2.67 enrichment R. B4 gave a binding signal of 1.13 enrichment R. B5 gave a binding signal of 1.41 enrichment R. B6 was tested, and the binding signal was 1.53 enrichment R. B7 showed a binding signal of 1.29 enrichment R. Work on B8 yielded a binding signal of 0.807 enrichment R. Binder B9 has a binding signal of 0.944 enrichment R. For B10, the binding signal was 0.565 enrichment R. Binder B11 has a binding signal of 1.1 enrichment R. Work on B12 yielded a binding signal of 1.66 enrichment R. B13 gave a binding signal of 0.902 enrichment R. In the case of B14, the binding signal is reported as 0.69 enrichment R. B15 showed a binding signal of 0.916 enrichment R. B16 showed a binding signal of 0.908 enrichment R. Binder B17 has a binding signal of 0.941 enrichment R. With B18 the binding signal was 1.23 enrichment R. Binder B19 has a binding signal of 0.714 enrichment R. With B20 the binding signal was 0.955 enrichment R. B21 was tested, and the binding signal was 1.11 enrichment R. Work on B22 yielded a binding signal of 1.66 enrichment R.
